Measurements as given in patent US11732048B2, “Anti-axl antagonistic antibodies” (BERGEN TEKNOLOGIOVERFØRING AS, priority 2016, dated 2023).

B1: H2L1 (Evitria): H2L1, same sequence, different preparation (antibody)
heavy: EVQLVESGGGLVQPGGSLRLSCAASGYSFTDFYINWVRQAPGKGLEWVARIFPGGDNTYYNEKFKGRFTLSADTSKSTAYLQMNSLRAEDTAVYYCARRGLYYAMDYWGQGTLVTVSS[in this place human IgG1 constant region]
light: DIQMTQSPSSLSASVGDRVTITCRSSQSLVHSNGIPYLHWYQQKPGKAPKLLIYRVSNRFSGVPSRFSGSGSGTDFTLTISSLQPEDFATYYCSQGTHVPPTFGQGTKVEIKRTVAAPSVFIFPPSDEQLKSGTASVVCLLNNFYPREAKVQWKVDNALQSGNSQESVTEQDSKDSTYSLSSTLTLSKADYEKHKVYACEVTHQGLSSPVTKSFNRGEC
B2: H2L1 (Catalent): H2L1, same sequence, different preparation (antibody)
heavy: B1 heavy
light: B1 light

Test system: Axl autophosphorylation (Tyrosine 866) in HeLa cells
Test: Phospho-Axl (Y866) ELISA on HeLa cell lysates
Format: cell-based, human
Description: To assess the level to which various Axl inhibitors reduce activation of Axl, as assessed through on of inhibition of Tyrosine 866 (Y866), one of Axl's known autophosphorylation sites (others include Y779 and Y821—see Oncotarget. 2014 October; 5(20): 9546-9563; doi: 10.18632/oncotarget.2542 and references cited therein).
Lysate Preparation • 1. Seed out HeLa cells in 14 10-cm dishes • a. 3 million cells per dish • 2. Incubate cells until attached • 3. Remove medium and wash cells with PBS • 4. Serum-starve the cells in 0.5% FBS media • a. 0.5% MEM for HeLa • b. O/N, at least 24 hour starvation • 5. Incubate cells with anti-Axl antibodies for 1 hour in 6 ml fresh 0.5% MEM. • a. BGB324 (CAS=1037624-75-1, UNII=0ICW2LX8AS): 0.2 uM • b. H2L1-Evitra*: 50 ug/ml • c. H2L1-Catalent*: 50 ug/ml • d. YW327.6S2: 50 ug/ml • *same sequence, different preparation • 6. Stimulate designated plates with 0.01 ug/ml rhGas6 in 6 ml of total media per 10-cm dish. • a. rhGas6 stimulation 0.01 ug/ml • 7. Set-up: Make each in 26 ml of 0.5% MEM • #1. Starvation • #2. rhGas6 stimulation (0.01 ug/ml) • #3. rhGas6 stimulation+pre-incubation with BGB324 0.2 uM • #4. rhGas6 stimulation+pre-incubation with H2L1-Evitra: 50 ug/ml • #5. rhGas6 stimulation+pre-incubation with H2L1-Catalent: 50 ug/ml • #6. rhGas6 stimulation+pre-incubation with YW327.6S2 50 ug/ml • #7. BGB324 0.2 uM alone • #8. H2L1-Evitra: 50 ug/ml alone • #9. H2L1-Catalent: 50 ug/ml alone • #10. YW327.6S2 50 ug/ml alone • 8. Stop reaction by lysing cells on ice • 9. Wash with cold PBS • 10. Add RIPA buffer (plus phosphatase inhibitors) • a. 100 ul/dish • 11. Scrape cells from dish • 12. Incubate 5-10 min on ice • 13. Spin down 13,000 rpm 5-10 min (cold) • 14. Supernatant transferred to fresh tube • 15. Measure phospho-protein by ELISA
Axl protein using BerGenBio's monoclonal mouse anti-HsAxl antibody 5F11 as the capture antibody, and the affinity selected polyclonal rabbit anti-phospho-Axl antibodies (pAxl-Y866-16) as the detection antibody.
Materials • Nunc MaxiSorp 96C plates • Tris-buffered saline (TBS) pH7.6 • Tween 20 (Sigma) • Wash buffer (TBS+0.05% Tween 20) • Fetal bovine serum (FBS) (Sigma) • Monoclonal mouse anti-HsAxl antibody 5F11, 3.6 mg/ml stock (BerGenBio). • Polyclonal rabbit anti-Hs-phospho-Y866 Axl antibody pAxl-Y866-16, 1.0 mg/ml (BerGenBio). Use diluted 1:1000 in TBS+10% FBS • HRP-conjugated Goat anti-Rabbit secondary antibody (Jackson Labs 111-035-144). Use at 1:2000 in TBS+10% FBS • Recombinant Human AxlFc chimera (AxlFc standard)(R&D Systems, 154-AL-100) • Recombinant Human AxlFc chimera conjugated to phospho-Axl peptides (pAxlFc standard) (BerGenBio) • 0.2M Sodium carbonate buffer pH9.4 • TMB stock solution (10 mg/ml 3,3′,5,5′-Tetramethylbenzidine, Sigma T2885 in DMSO) • 100 mM Sodium acetate pH6 • 1M H2SO4 • 30% Hydrogen peroxide solution • Lysates: prepared as above. For HeLa cells total protein concentration 1.5 mg/ml gives a strong signal. • Microplate reader with 450 nm absorbance. Absorbance at 595 nm (if available) should be subtracted to reduce background, but the effect is marginal. […]
Develop • Prepare fresh substrate solution: • 100 μl 10 mg/ml TMB stock solution • 10 μl 30% Hydrogen peroxide solution • 9.9 ml 100 mM Sodium acetate pH6 • Optional: test a small volume of the substrate solution by adding 1 μl leftover HRP-conjugated detection antibody mixture (step 12). […] Read plate on microplate reader with absorbance of 450 nm.

[1] = agent alone, starved HeLa (antibodies 50 ug/ml, BGB324 0.2 uM, rhGas6 0.01 ug/ml)
[2] = rhGas6 0.01 ug/ml stimulation after 1 hour pre-incubation (antibodies 50 ug/ml, BGB324 0.2 uM), starved HeLa

Row | Molecule | Absorbance @ 450 nm (pAxl reading) [1] | Absorbance @ 450 nm (pAxl reading) [2] | Absorbance @ 450 nm (pAxl reading) (rhGas6 0.01 ug/ml stimulation after 1 hour pre-incubation (antibodies 50 ug/ml, BGB324 0.2 uM), starved HeLa, listed as H2L1-Evitria)
1 | B1 | 0.047 | 0.04 | 0.040
2 | B2 | 0.059 | 0.055 | 
